Data set [1] concerns U2OS-Luciferase. Nature of the data set: Bystander effect in mixed culture of positive and negative cells. The note with it: viability of U2OS-Luciferase negative cells co-cultured with CLDN18.2-overexpressing BxPC-3, 120 h, up to 33.3 nM; ADCs of Example 5. Format: cell-based, Human. The protocol: CLDN18.2-overexpressing BxPC-3 was selected as positive cells and U2OS stably expressing luciferase (U2OS-Luciferase) was selected as negative cells. These cells were mixed and cultured to detect the bystander effect of the anti-CLDN18.2 antibody-drug conjugates prepared in Example 5.
Positive cells and negative cells in the logarithmic growth phase were taken, both adjusted to a density of 4 × 10^4 cells/mL, and added to a 96-well plate at 50 µL/well. The anti-CLDN18.2 antibody-drug conjugate was subjected to gradient dilution with the McCoy's 5A complete medium (GIBCO, Cat. No. 16600-082) containing 10% FBS and added to the 96-well plate at 50 µL/well. The initial concentration of the anti-CLDN18.2 antibody-drug conjugate is 33.3 nM, with a 5-fold gradient dilution for a total of 8 concentrations. The 96-well plate was incubated in an incubator at 37 °C with 5% CO2 for 120 h. […] The chemiluminescence value was determined using a microplate reader, and the viability of U2OS-Luciferase cells was calculated. Viability(%) = (Luminescence value of the experimental group)/(Luminescence value of the control group) × 100% [formula]
Data were analyzed using GraphPad Prism 5.

Data set [2] is described as follows: Pharmacokinetic evaluation in rats (total antibodies, ELISA). Type of data set: in vivo. The note with it: SD rats, intravenous, 10 mg/kg, Mean ± SD, ADCs of Example 3. The protocol:
SD rats (160-180 g) (source: Laboratory Animal Operation Department, Shanghai Institute for Biomedical and Pharmaceutical Technologies) were randomly divided into 3 groups of 4 rats each, and were intravenously injected with 15F9-DDDXd, hz28G3-1.1-DDDXd, and hz28G3-1.1-DDDXd prepared in Example 3 at a dose of 10 mg/kg, respectively. Before and after the administration, SD rats were all not fasted and had free access to water.
About 0.2 mL of blood was collected from the jugular vein at 30 min, 2 h (± 1 min), 8 h (± 1 min), 24 h (± 5 min), 48 h (± 5 min), 4 d (± 10 min), 7 d (± 10 min), 10 d (± 10 min), 14 d (± 20 min), 21 d (± 20 min), or 28 d (± 20 min) after the administration, anticoagulated with EDTA-K2, and centrifuged at 4 °C for 10 min at 4000 rpm to separate the plasma.
An appropriate volume of the separated plasma was pipetted and diluted with a sample diluent (PBST containing 1% BSA) at a minimum dilution factor of (20-fold). For a sample that required a higher dilution, it was further diluted with a sample diluent containing 5% blank rat plasma. Then, the mixture was vortexed until it was mixed uniformly to obtain the test sample. The quantitative range of the detection method was 19.53125 ng/mL-2500 ng/mL. AffiniPure Goat Anti-Human IgG, F(ab')2 fragment specific (Jackson ImmunoResearch, 109-005-097) was diluted with the PBS buffer (pH 7.4) to a concentration of 1 µg/mL, added to a 96-well plate at 100 µL/well for coating, and incubated at 4 °C overnight. The 96-well plate was washed with PBST (PBS containing 0.5% of Tween-20). Then, the blocking buffer (PBST containing 1% of BSA) was added at 200 µL/well, and the plate was blocked at room temperature for 2-3 h. The blocking buffer was discarded. The diluted standard curve sample, the quality control sample, and the above test sample were added at 100 µL/well, and the mixture was incubated at room temperature for 2 h. After the 96-well plate was washed with PBST, Goat anti-Human Kappa Light Chain Cross-Adsorbed Secondary Antibody, HRP (Thermofisher, A18859) was added according to a volume ratio of 1:10,000, and the mixture was incubated at room temperature for 1 h. After the 96-well plate was washed with PBST, the TMB solution (Tiangen, Cat. No. PA107-01) was added at 100 µL/well, and the mixture was incubated at room temperature for 14 min in the dark. The reaction was stopped with 1 M H2SO4. The absorbance value was read using a Tecan Spark microplate reader at a wavelength of 450 nm/630 nm, and curve fitting was performed using a 4-parameter logistic fit.
Intravenous exposure of the anti-CLDN18.2 antibody-drug conjugates was evaluated by in vivo pharmacokinetics in rats and the mean pharmacokinetic parameters for total antibodies (including antibodies conjugated and unconjugated with cytotoxic drugs) in SD rats of each group were calculated, including drug peak concentration (Cmax), time to peak (Tmax), area under the concentration-time curve (AUC(0-t)), elimination half-life (t1/2), mean residence time (MRT(0-t)), and clearance (CL), as shown in Table 6 below.
For orientation: An ELISA detects its analyte on a solid surface through an enzyme-linked reagent.

A short description of data set [3]: Aggregate verification by gel (SEC) chromatography. Format: physicochemical. The note with it: peak area percentage, 280 nm, ADCs prepared in Example 3. The protocol:
Components of the anti-CLDN18.2 antibody-drug conjugates prepared in Example 3 were separated using a gel chromatographic column. Elution was performed using a neutral buffer containing 10% isopropanol as the mobile phase. The components were eluted sequentially in descending order according to their molecular weights. The gel chromatographic column used was an ACQUITY UPLC Protein BEH SEC Column 200Å, 1.7 µm, 4.6 × 300 mm, and the column temperature was 25 °C. The mobile phase was 50 mM phosphate buffered saline-200 mM sodium chloride-10% isopropanol at pH 7.0 (12.53 g of disodium hydrogen phosphate dodecahydrate, 2.33 g of sodium dihydrogen phosphate dihydrate, and 11.69 g of sodium chloride were weighed, about 800 mL of ultrapure water was added, and the mixture was stirred until complete dissolution; 100 mL of isopropanol was added, ultrapure water was added to bring the volume to 1000 mL, and the mixture was mixed uniformly and then filtered through a 0.22 µm filter). 20 µg of the anti-CLDN18.2 antibody conjugates were precisely taken and injected into a liquid chromatograph, and the detection was performed at the wavelength of 280 nm. The flow rate was 0.3 mL/min, and isocratic elution was performed for 15 min.
Data were processed, and the results were quantitatively analyzed using the area normalization method. The peak area percentages of the aggregate, the monomer, and the low molecular weight impurities of the anti-CLDN18.2 antibody-drug conjugates were calculated. The aggregate peak appeared before the main peak, the monomer peak was the main peak, and the low molecular weight impurity peaks appeared after the main peak. The content proportions of the monomer, the aggregate, and the low molecular weight impurities of the anti-CLDN18.2 antibody-drug conjugates are shown in Table 1. Table 1. The content proportions of the monomer, the aggregate, and the low molecular weight impurities of the anti-CLDN18.2 antibody-drug conjugates

What is called Cmax is the peak of the concentration-time curve. What is called Tmax is the time at which the peak concentration occurs.

B1: hz28G3-1.3-DDDXd: anti-CLDN18.2 antibody hz28G3-1.3 conjugated with compound H (MC-GGFG-DDDXd); DAR 7.4 (Example 3), 7.6 (Example 5), 7.93 (Example 16) (conjugate)
heavy: QVQLVQSGAEVKKPGASVKVSCKTSGYSFTDYLMLWVRQAHGQSLEWMGNINPYYGRTTYALKFKGRVTMTVDRSTSTVYMELSSLRSEDTAVYYCARDGYSLRNAMDYWGQGTLVTVSS[human IgG1 constant region left out here]
light: DIVMTQSPDSLAVSLGERATINCKSSQSLFNSGNQKNYLAWYQQKPGQPPKLLIYGASTRESGVPDRFSGSGSGTDFTLTISSLQAEDVAVYYCQNAHSYPYTFGQGTKVEIKRTVAAPSVFIFPPSDEQLKSGTASVVCLLNNFYPREAKVQWKVDNALQSGNSQESVTEQDSKDSTYSLSSTLTLSKADYEKHKVYACEVTHQGLSSPVTKSFNRGEC
In the case of B1, the bystander effect result in data set [1] was “significant bystander effect”. In data set [2], the “AUC(0-21d)” value turned out to be 578 ± 14.0 µg·days/mL, the CL amounted to 15.4 ± 0.378 mL/day/kg, the Cmax was found to be 190 ± 8.13 µg/mL and the “MRT(0-21d)” value amounted to 134 ± 1.27 h. Moreover, in data set [2], the Tmax came to 0.499 ± 0 h and the t1/2 worked out at 187 ± 13.9 h. In data set [3], the Aggregate was 0.54%, the “Low molecular weight impurities” value came out at 0.10% and the Monomer was 99.36%.

The values are drawn from EP4628104A1, “ANTI-CLDN18.2 ANTIBODY-DRUG CONJUGATE, AND PHARMACEUTICAL COMPOSITION THEREOF AND USE THEREOF” (priority 2022, dated 2024).
